According to publication PMC4336329 (PLoS ONE, 2015):
Among all 310,000 compounds or so, about 14,000 (4.5%) showed an effect of 50% or more. The effect is printed as a negative number. The list shows a part of the results.

Each compound was assayed against human ether-à-go-go-related gene (hERG) potassium channel (human, UniProt Q12809) (assay: primary screen, population patch clamp on CHO cells stably expressing hERG).
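Further: peak tail current of the secondary pulse compared with the same well before compound.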

Chain of human ether-à-go-go-related gene (hERG) potassium channel (Q12809 whole entry, looked up): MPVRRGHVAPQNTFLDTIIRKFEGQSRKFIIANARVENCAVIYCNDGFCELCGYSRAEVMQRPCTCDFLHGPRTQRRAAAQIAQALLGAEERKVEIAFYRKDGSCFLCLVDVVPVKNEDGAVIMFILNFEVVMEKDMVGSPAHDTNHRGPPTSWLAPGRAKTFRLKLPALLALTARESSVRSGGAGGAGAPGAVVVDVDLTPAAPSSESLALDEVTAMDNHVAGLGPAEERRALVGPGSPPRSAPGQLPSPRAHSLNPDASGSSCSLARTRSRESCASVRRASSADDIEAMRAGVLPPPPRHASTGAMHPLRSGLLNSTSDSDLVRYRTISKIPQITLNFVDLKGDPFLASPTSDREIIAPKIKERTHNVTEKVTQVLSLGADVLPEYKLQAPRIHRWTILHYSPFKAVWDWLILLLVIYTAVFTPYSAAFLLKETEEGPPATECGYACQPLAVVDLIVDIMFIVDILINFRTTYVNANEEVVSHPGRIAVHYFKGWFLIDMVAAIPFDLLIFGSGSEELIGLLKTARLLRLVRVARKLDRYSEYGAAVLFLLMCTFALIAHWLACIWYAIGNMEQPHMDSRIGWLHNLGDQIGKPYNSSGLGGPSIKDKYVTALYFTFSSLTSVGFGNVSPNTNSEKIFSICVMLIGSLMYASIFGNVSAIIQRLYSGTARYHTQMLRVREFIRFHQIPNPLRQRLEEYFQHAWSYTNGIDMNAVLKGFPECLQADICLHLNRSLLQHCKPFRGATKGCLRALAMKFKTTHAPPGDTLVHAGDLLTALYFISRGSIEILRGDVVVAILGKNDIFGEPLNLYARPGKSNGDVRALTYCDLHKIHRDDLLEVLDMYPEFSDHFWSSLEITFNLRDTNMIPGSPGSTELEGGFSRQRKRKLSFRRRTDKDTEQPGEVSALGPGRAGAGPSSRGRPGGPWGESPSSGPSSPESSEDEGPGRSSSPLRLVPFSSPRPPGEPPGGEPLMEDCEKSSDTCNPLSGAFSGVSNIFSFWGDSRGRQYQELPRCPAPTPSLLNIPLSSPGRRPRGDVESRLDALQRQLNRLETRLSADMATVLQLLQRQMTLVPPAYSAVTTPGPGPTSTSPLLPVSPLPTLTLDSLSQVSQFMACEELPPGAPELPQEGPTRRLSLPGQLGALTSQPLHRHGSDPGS

SMILES	hERG current change (%, negative = inhibition) at 10uM [%]
CSc1ccc(CCNC(=O)CCc2nnc3ccc(N4CCCCC4)nn23)cc1	-32.6
[O-]C1=N/[N+](=C/c2ccc(Cl)cc2)CC1	1.97
COC(=O)c1c(NC(=S)NN2CCOCC2)sc2c1CCCC2	8.03
Cc1nc(SCC(=O)Nc2ccc(F)cc2)c(C#N)c(C)c1CC(=O)c1ccc(Br)cc1	5.99
O=C(CNS(=O)(=O)c1ccccc1)OCC(=O)c1ccccc1Cl	3.78
O=C(COc1ccc2oc3c(c2c1)CCCC3)Nc1ccccn1	11.8
Oc1ccc(CNc2ccc(F)cc2)c2cccnc12	12
O=C(CN1C(=O)C2C3C=CC(C3)C2C1=O)OCC(=O)c1ccccc1 (stereo not drawn)	7.44
O=C(CN1CCN(C(=O)c2ccc(-c3nc4ccccc4s3)o2)CC1)Nc1ccc(F)cc1	-72.3
COC(=O)c1cccc(NC(=O)Cc2nc(-c3ccccc3)sc2-c2ccc(C)cc2)c1	6.76
CCOC(=O)CSc1nc(C)cc(=O)[nH]1	14.3
COc1ccc(NC(=O)Cn2c3ccccc3c3nc4n(c(=O)c32)CCS4)cc1OC	14.8
CC(C)(C)C(=O)NNC(=O)COc1ccc2ccccc2c1Br	3.81
COc1ccc(-c2cc3ccc(OCC(C)=O)cc3oc2=O)cc1	23.4
O=C(COC(=O)COc1ccccc1[N+](=O)[O-])NC1CCCC1	4.16
CN(C)c1ccc(C(=S)N2CCN(C(=S)Nc3ccccc3)CC2)cc1	5.41
Cc1ccc(CSc2nnnn2C)cc1	6.66
Cc1cc(C)c2cc(C(c3nnnn3C3CCCC3)N3CCOCC3)c(=O)[nH]c2c1 (stereo not drawn)	-4.09
COc1ccc(N2CCN(C(=O)C3CCN(S(=O)(=O)c4ccc(F)cc4)CC3)CC2)cc1	-48.3
CCOc1ccc(C(=O)C(C)OC(=O)c2nc(Cl)ccc2Cl)cc1 (stereo not drawn)	-25.8
Cc1ccc(S(=O)(=O)N2CCCC(C(=O)NCc3ccc4c(c3)OCO4)C2)cc1 (stereo not drawn)	0.729
CC(=O)C1=C(O)C(=O)N(c2ccc(O)cc2)C1c1ccccc1[N+](=O)[O-] (stereo not drawn)	13.2
COc1ccc(CN2C(=O)CC(=O)NC2=S)cc1	18.3
CC(=O)c1ccc(NC(=O)c2sc3nc(N4CCOCC4)c4c(c3c2N)CCCC4)cc1	11.1
CCN(CC)S(=O)(=O)c1ccc(-c2nnc(SCC(=O)N3CCc4ccccc43)o2)cc1	5.66
COC(=O)C1C(c2ccccc2)C(C(=O)OCc2ccco2)C1c1ccccc1 (stereo not drawn)	5.91
COc1ccc(C(CNC(=O)COc2c(C)cc(C)cc2C)N2CCOCC2)cc1 (stereo not drawn)	-12.1

SMILES	hERG current change (%, negative = inhibition) at 10uM [%]
CCOc1ccc(C2C(C(=O)c3cccs3)=C(O)C(=O)N2CCCn2ccnc2)cc1 (stereo not drawn)	-1.65
CCOC(=O)c1cnn(-c2sc(C(=O)OCC)c(C)c2C(=O)OCC)c1N	16.4
COc1ccccc1C(=O)Nn1c(C)nc2ccccc2c1=O	11.6
O=C(c1ccco1)N1CCN(C(c2ccc(Cl)cc2)c2nnnn2CC2CCCO2)CC1 (stereo not drawn)	-22.1
O=C(COc1ccc(Cl)cc1Cl)NC1CCSC1=O (stereo not drawn)	-7.02
CCN(C(=O)COC(=O)/C=C/c1ccc(O)c(OC)c1)C1CCS(=O)(=O)C1 (stereo not drawn)	-3.88
CCN(CC)C(=O)CNc1ccc(C(F)(F)F)cc1[N+](=O)[O-]	-24.6
CCOCCOCCC(C(=O)OCC)P(=O)(c1ccccc1)c1ccccc1 (stereo not drawn)	-13.8
COCCn1c(Cc2ccccc2)nnc1SCC(=O)N1CCOCC1	9.96
CCC(=O)Nc1c(C#N)c2nc3ccccc3nc2n1C1CCCCC1	16.5
NS(=O)(=O)c1ccc(CCNC(=O)c2cc3ccccc3oc2=O)cc1	6.32
Cc1nc(SCC(N)=O)[nH]c(=O)c1CCC(C)C	3.92
CC(=O)N1CCOc2ccc(S(=O)(=O)NCC3CCC(C(=O)Nc4ccc(C)cn4)CC3)cc21 (stereo not drawn)	8.8
CCOc1cc(C(c2c(C)[nH][nH]c2=O)c2c(C)[nH][nH]c2=O)cc(Cl)c1O	14.1
COc1ccccc1CNC(=O)CCCc1nnc2n(C)c(=O)c3sccc3n12	-28.4
CN(/N=C/c1cccnc1)c1cnn(-c2ccc(F)c(Cl)c2)c(=O)c1Cl	-1.43
CCOC(=O)C1CCCN(C(=O)COc2ccc(N(C)S(=O)(=O)c3ccc(F)cc3)cc2)C1 (stereo not drawn)	-66.5
CCOC(=O)C1=C(COC(=O)c2cccc(N(C)C)c2)NC(=O)NC1C (stereo not drawn)	2.49
Clc1cccc(COn2c(-c3ccc(Cl)cc3Cl)nc3ncccc32)c1	-8.79
O=C(NCCN1CCCC1=O)C1CCC(=O)N(CCc2ccc(Cl)cc2)C1 (stereo not drawn)	-4.65
COc1cc(NC(=O)c2oc3ccccc3c2C)ccc1NC(=O)c1ccco1	9.89
CCc1ccccc1NC(=O)N[C@@H](C)C(=O)O	0.395
CCn1c(=O)cc(SCC(=O)NCCCN2CCN(c3ccc(F)cc3)CC2)c2ccccc21	-46
COC(=O)c1ccc(N2CCN(C)CC2)c(NC(=O)c2cccs2)c1	-8.75
Cc1nc(NC(=O)CN2CCOCC2)sc1-c1ccccc1	-8.02
O=C(Nc1ccc(Oc2ccc(NC(=O)Nc3ccc([N+](=O)[O-])cc3)cc2)cc1)Nc1ccc([N+](=O)[O-])cc1	20.3
C/C(=N\N=C(/N)SC1CC(=O)N(c2ccc(Br)cc2)C1=O)c1cccs1 (stereo not drawn)	-27.9
